The whole screen tested about 310,000 compounds, of which about 14,000 (4.5%) showed an effect of 50% or more. Effects have a minus sign here. The list shows a part of the results.
Target: human ether-à-go-go-related gene (hERG) potassium channel (human, UniProt Q12809)
Assay: primary screen, population patch clamp on CHO cells stably expressing hERG
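Note: peak tail current of the secondary pulse compared with the same well before compound.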

human ether-à-go-go-related gene (hERG) potassium channel, sequence (Q12809 whole entry, looked up): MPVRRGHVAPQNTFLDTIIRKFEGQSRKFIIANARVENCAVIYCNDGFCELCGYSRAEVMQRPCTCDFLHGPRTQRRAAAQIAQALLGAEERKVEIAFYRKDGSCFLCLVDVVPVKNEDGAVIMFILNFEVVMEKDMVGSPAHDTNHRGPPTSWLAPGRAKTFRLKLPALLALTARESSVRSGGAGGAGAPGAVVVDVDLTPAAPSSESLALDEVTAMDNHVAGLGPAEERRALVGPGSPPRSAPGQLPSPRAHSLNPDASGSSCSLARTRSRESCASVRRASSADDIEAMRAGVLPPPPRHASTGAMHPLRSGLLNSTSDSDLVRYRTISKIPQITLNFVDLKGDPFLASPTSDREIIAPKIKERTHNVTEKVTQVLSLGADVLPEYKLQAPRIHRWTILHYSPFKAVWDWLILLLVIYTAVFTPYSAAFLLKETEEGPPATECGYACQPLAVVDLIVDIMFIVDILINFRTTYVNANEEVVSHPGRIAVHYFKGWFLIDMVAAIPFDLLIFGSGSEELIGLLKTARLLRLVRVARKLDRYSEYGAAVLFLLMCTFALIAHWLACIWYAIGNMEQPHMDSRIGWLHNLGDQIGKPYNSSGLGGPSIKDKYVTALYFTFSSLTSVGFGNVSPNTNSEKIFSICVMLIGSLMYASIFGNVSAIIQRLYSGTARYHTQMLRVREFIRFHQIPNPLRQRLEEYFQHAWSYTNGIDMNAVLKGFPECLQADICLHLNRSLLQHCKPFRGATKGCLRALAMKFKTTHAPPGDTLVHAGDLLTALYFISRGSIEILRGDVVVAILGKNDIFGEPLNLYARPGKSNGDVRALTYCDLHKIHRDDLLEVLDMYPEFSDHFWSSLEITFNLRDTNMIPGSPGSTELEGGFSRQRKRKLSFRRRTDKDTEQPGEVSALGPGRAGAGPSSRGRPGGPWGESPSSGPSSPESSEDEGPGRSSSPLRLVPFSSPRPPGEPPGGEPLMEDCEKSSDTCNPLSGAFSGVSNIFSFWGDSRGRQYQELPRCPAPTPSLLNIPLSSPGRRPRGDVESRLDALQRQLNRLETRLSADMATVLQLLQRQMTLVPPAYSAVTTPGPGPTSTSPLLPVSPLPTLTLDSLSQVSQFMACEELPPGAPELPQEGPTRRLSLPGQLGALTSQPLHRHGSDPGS

Compound | hERG current change (%, negative = inhibition) at 10uM [%]
CCOc1ncnc2c1oc1nc(CC(C)C)c3c(c12)CC(C)(C)OC3 | 3.47
CCC(C)NC(=O)c1ccccc1NC(=O)C(C)N(c1ccccc1)S(C)(=O)=O (stereo not drawn) | -5.98
CCOC(=O)C1(Cc2ccc(Cl)cc2)CCN(C(=O)c2sc(C)nc2C)CC1 | -52.9
Cc1cc(N)ccc1N1CCCC1.Cl | -1.82
CCOC(=O)CC1(NC(=O)c2cc(COc3cncc(Cl)c3)on2)CCCCC1 | -18.8
O=C(C(=O)N1CCN(c2cccc(Cl)c2)CC1)c1c[nH]c2ccccc12 | 3.75
CCSc1nsc(NC(=O)Nc2cccc(C(C)=O)c2)n1 | 10.5
O=C(NC(=O)N1CCOCC1)c1ccccc1 | 8.08
COc1ccc(C(OC(=O)c2ccco2)C(=O)NCc2ccco2)cc1 (stereo not drawn) | 20.9
COc1cccc(C2=NN(C(=O)c3ccc(C)o3)C(O)(C(F)(F)F)C2)c1 (stereo not drawn) | 26.3
O=C(Cc1ccccc1)Nc1ncccn1 | 4.2
COc1cc(OC)cc(C(=O)Oc2c(CN3CCOCC3)cc(Cl)c3cccnc23)c1 | -15.5
Cc1nc2sccn2c(=O)c1S(=O)(=O)NCC(C)c1ccccc1 (stereo not drawn) | -3.59
CC(NC(=O)c1ccccc1[N+](=O)[O-])C1CC2CCC1C2 (stereo not drawn) | 5.96
CCOc1cc(-c2n[nH]c(=S)n2Cc2ccccc2)ccc1OC(F)F | 10.9
CN(Cc1ccc(F)cc1)C(=O)CCc1nnc(-c2ccccc2)o1 | 3.07
CCCc1nnc(NC(=O)CCC(=O)NCc2ccc(Cl)cc2Cl)s1 | 21.6
COc1cc(C(=O)Nc2ccc(C)cc2C(NCC(=O)NN)c2ccccc2)cc(OC)c1OC (stereo not drawn) | 15.1
Cc1cc(-c2ccc(Cl)cc2)n2nc(C)cc2n1 | 4.45
Cc1nn(-c2ccc(C(=O)O)cc2)c(=O)c2ccccc12 | 9.56
COc1cc(CN(C2CCCCC2C)S(=O)(=O)c2ccc(S(=O)(=O)NC3CC3)cc2)cc(OC)c1OC (stereo not drawn) | -8.6
Cc1cc(=O)[nH]c(N/N=C/c2ccc(-c3ccc([N+](=O)[O-])cc3)o2)n1 | -6.34
O=c1[nH]c(SCc2ccccc2)nc2ccsc12 | 5.3

Compound | hERG current change (%, negative = inhibition) at 10uM [%]
CCSc1nnc(NC(=O)c2cc(OC)c(OC)c(OC)c2)s1 | 3.21
CCCc1cc(C(=O)N2CCCC(N3CCN(c4ccccc4C)CC3)C2)n(C)n1 (stereo not drawn) | -35.8
O=C(NNS(=O)(=O)c1ccccc1)c1ccccc1-n1cccc1 | 6.21
Cc1cc(C)cc(NC(=S)NCC2CCCO2)c1 (stereo not drawn) | 10.4
CCOC(=O)c1nn(-c2ccc(C)c(C)c2)c(=O)c(C#N)c1C | 9.47
CCO[C@H]1OC(C(=O)N2CCOCC2)=C[C@@H](c2ccc(C(F)(F)F)cc2)[C@@H]1CCCO | -26.3
CN1CCN(c2cc(N3CCCC3)c([N+](=O)[O-])cc2F)CC1 | -9.86
O=C(Cn1cnc2ccccc2c1=O)c1ccc2ccccc2c1 | -7.53
CCN1CCN(C(=O)Nc2cccc3ccccc23)CC1 | -1.52
COc1ccc(OC)c(/C=C2\SC(=S)N(N3CCOCC3)C2=O)c1 | 14.5
CN(CC(=O)Nc1ncn[nH]1)S(=O)(=O)c1cc(Cl)ccc1Cl | -31.5
O=C(CP(=O)(CO)CO)c1ccc(Cl)cc1 | -3.45
CCN(CC)CC#CCC(O)(c1ccccc1)c1ccc(Br)cc1.Cl (stereo not drawn) | -50.1
CC(=O)n1cc(N(C(=O)CCl)c2ccc(C)cc2)c2ccccc21 | -5.35
O=C1c2ccccc2C(O)N1Cc1ccc2c(c1)OCO2 (stereo not drawn) | 9.2
CC(C)N(CCNC(=O)c1cn(C)c2ccc(S(=O)(=O)N(C)C)cc2c1=O)Cc1ccccc1 | -19.4
OC1(c2cn(Cc3ccccc3)nn2)CCCCC1 | 5.04
CC1Cc2ccccc2N1C(=O)CSc1nnc(C2CC2)n1C (stereo not drawn) | 17.6
CC(OC(=O)c1cccc(S(=O)(=O)N2CCCC2)c1)C(=O)c1ccccc1 (stereo not drawn) | 3.47
O=C(COC(=O)c1ccccn1)NNC(=O)c1ccc([N+](=O)[O-])cc1 | -5.1
O=C(Cc1nn[nH]n1)NCc1ccccc1Cl | -26.7
CCN(c1ccccc1)S(=O)(=O)c1ccc(Cl)c(C(=O)OCC(=O)c2[nH]c(C)c(C(C)=O)c2C)c1 | -22.6
